Experimental data from PubChem BioAssay AID651568 (National Center for Advancing Translational Sciences (NCATS), 2012).
Screen size: about 1,200 compounds; about 55 (5%) were called active. Not shown: some 15% with an inconclusive outcome. Calls follow the shape of the dose curve; as a rule, active = well fitted inhibition curve with a large enough effect; inconclusive = small, poorly fitted or top-dose-only effect; inactive = no such curve, though single readings can be large or run the other way. The list shows a part of the results.

experiment: qHTS Assay to Find Inhibitors of Chronic Active B-Cell Receptor Signaling: Hit Validation in Renilla Reporter Assay; details: TMD8 IkB-Renilla luciferase reporter, NF-kB signaling; series mostly up to 57.5 µM; activity change, negative = inhibition: at the top concentration; also: nearly all actives have a fitted effect of over 70% in size
Outline: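 Orthogonal secondary test of primary-screen hits in ABC-DLBCL cells carrying constitutively expressed IkB-Photinus and Renilla luciferase reporters, read by Dual-Glo luminescence; luciferases differ from the primary assay's click beetle enzymes, to exclude assay-specific artifacts.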
% is scaled to controls: 0 for no effect and ±100 for the full control effect.

Activity change, negative = inhibition, inactive:
CCN(CC(=O)Nc1cc(Cl)ccc1C)C(=O)C1CC1 -0.258%
COc1cccc(-c2cc(=O)c3cc(NC(=O)c4ccc(N(C)C)cc4)ccc3[nH]2)c1 -13.2%
Cc1ccc(-c2oc3ncnc(N)c3c2-c2ccc(C)cc2)cc1 -2.78%
OCC1OC(n2cnc3c(NC4CCCCC4)ncnc32)C(O)C1O (stereo not given) -20.3%
CNC(=S)N/N=C/c1ccc(N2CCOCC2)s1 -2.21%
COc1ccc2c(c1)C(C)=CC(C)(C)N2S(=O)(=O)c1ccc(Br)cc1 -22.8%
COC(=O)C1CC23C=CCN4CCC5(c6ccccc6NC15C2C)C43 (stereo not given) -11%
CCOc1ccc(S(=O)(=O)N(CC(=O)NN=C2CCN(C)CC2)c2ccc(C)cc2)cc1 -0.0775%
CCOC(=O)c1[nH]c(C)c(C(=O)N2CCc3ccccc32)c1C -6.3%
CCOC(=O)c1[nH]c2c(c1C)C(=O)CC(c1ccc(F)cc1)C2 (stereo not given) 8.44%
CCCCOc1ccccc1NC(=O)Cn1c(-c2nonc2N)nc2ccccc21 -11.1%
O=C(O)c1ccc(CSc2nnc(-c3ccco3)o2)cc1 1.63%
COc1ccc(CC(=O)OCC(=O)c2c[nH]c3ccccc23)cc1 4.58%
COc1ccc(/C=N/NC(=O)c2[nH]c3ccc(C)cc3c2-c2ccccc2)c(C(=O)O)c1OC -1.16%
CCOc1ccccc1NS(=O)(=O)c1ccc(-c2cnc(C3CC3)o2)cc1 -5.07%
CCOc1cc(CNc2ccc3c(c2)OCCO3)cc(Br)c1OCC -3.09%
N#CC1=C(N)Oc2cc(N)ccc2C1c1cccc(Br)c1 (stereo not given) -21.5%
Cc1ccc(/C=N/NC(=O)C2COc3ccccc3O2)s1 (stereo not given) -2.31%
Cn1cccc1/C=C1\SC(=Nc2ccc(O)cc2)NC1=O -4.1%
COc1c(Br)cc(Br)cc1/C=N/NC(=O)c1cccnc1 0.885%
COc1ccc(N(CC(=O)NC2CCCC2)C(=O)Cn2nnc(-c3ccc(OC)c(OC)c3)n2)c(OC)c1 27.8%
CCCC(=O)Nc1ccc2c(c1)nc(CN1CCN(C(=O)OCC)CC1)n2CC -1.03%
OC(C#Cc1ccccn1)c1cccs1 (stereo not given) -3.19%
Cc1cccc(NC(=S)NNC(=O)CCn2cc(C)cn2)c1 6.59%
CCOc1ccc(NCc2ccccc2OCc2cccc(F)c2)cc1 -20.1%
C[C@]12CCC(=O)C=C1CC[C@@H]1[C@@H]2[C@@H](O)C[C@@]2(C)[C@H]1CC[C@]2(O)C(=O)CO 4.8%
COc1cc2c(cc1OC)C1=CC(=O)C(=O)N1C(C)(C)C2 -15%
Cc1ccc(C(=O)Nc2ncc(Cc3ccc(SC(F)F)cc3)s2)cc1 -18.5%
COc1cc(OC)cc(C(=O)NCC(=O)N2CC=C(c3ccccc3)CC2)c1 1.29%
COC(=O)C1=C(C)NC(C)=C(C(=O)OC)C1c1ccc(N(C)C)cc1 9.69%
Cc1cccc(N(C)S(=O)(=O)c2ccc(-c3cc(C)no3)s2)c1 1.15%
COc1cc2nc(=S)n3[nH]c(CCn4nc(C)cc4C)nc3c2cc1OC 1.16%
Cn1c(=S)[nH]c2c(c1=O)C(C)(C)Cc1ccccc1-2 -9.7%
COc1ccc(-c2cccc(-c3cc(=O)oc4cc(OC)cc(OC)c34)c2)cc1 -0.209%
Cc1ccccc1NC(=S)NCc1ccc2[nH]c3c(c2c1)CCCC3 8.57%
C=CCNC(=S)N/N=C/c1ccc(C(F)(F)F)cc1 3.98%
COc1cc(OC)c2c(=O)cc(-c3cccnc3)oc2c1 -16.1%
CC(/C=N/NC(=O)c1cc(-c2ccncc2)nc2ccccc12)=C\c1ccco1 -17.6%
COc1ccc(C(=O)N[C@H](C(=O)Nc2nc3ccccc3[nH]2)C(C)C)cc1 -9.83%
Cc1ccc2[nH]c(C(=O)N/N=C/c3ccccc3C(=O)O)c(-c3ccccc3)c2c1 -19.8%
COc1ccccc1/C=N/NC(=S)Nc1cccnc1 -2.9%
CN[C@H]1CCc2cc(OC)c(OC)c(OC)c2-c2ccc(N(C)CC(OC)OC)c(=O)cc21 -0.175%
CSc1nc(N(C)NC(=O)c2cccc(C)c2)c2ccccc2n1 -1.88%
CSc1nc(SCC(=O)NCc2ccco2)c2c3c(sc2n1)COC(C)(C)C3 -0.354%
Cc1ccccc1C(=O)N1CCC(C(=O)N2CCN(Cc3ccc4c(c3)OCO4)CC2)CC1 2.03%
O=C(Cc1cccs1)N/N=C/C=C/c1ccco1 9.19%
CC[C@]12c3[nH]c4cc(CCC(=O)N(C)C)ccc4c3CCN1C(=O)[C@@H](CC(=O)NCC13CC4CC(CC(C4)C1)C3)C[C@@H]2C(=O)N1CCN(C(=O)c2ccco2)CC1 -5.47%
CCOc1ccccc1OCC(=O)N/N=C(\C)Cc1ccc(OC)cc1 0.674%
O=C(CSc1cccc[n+]1[O-])c1ccccc1Br -12.4%
Cc1cccc(C(=O)N[C@H](C(=O)Nc2nc3ccccc3[nH]2)C(C)C)c1 -18.3%
CNC(=S)N/N=C(\C)c1cccc([N+](=O)[O-])c1 4.54%
COc1cc(C(=O)NNC(=S)Nc2ccc(S(N)(=O)=O)cc2)cc(OC)c1OC 2.08%
CCCC(=O)Nc1ncnc2c1ncn2[C@@H]1O[C@@H]2COP(=O)(O)O[C@H]2[C@H]1OC(=O)CCC -0.82%
CC(C)(CNC(=O)CO/N=C1/C=C2CCC3C(C(O)C[C@@]4(C)C3CC[C@]4(O)C(=O)CO)[C@@]2(C)CC1)C(O)C(=O)O (stereo not given in full) 5.62%
CC(C)c1ccc(/C=N/NC(=O)c2ccccc2Cl)cc1 4.09%
COc1cc(C(=O)N/N=C/c2cc([N+](=O)[O-])cs2)cc(OC)c1OC 7.09%
CCOC(=O)C(C)Oc1cccc2c(=O)n(CC(=O)NCc3ccco3)ccc12 (stereo not given) -13.8%
Cc1ccc(NC(=S)N/N=C/c2c(Cl)cccc2Cl)c(C)c1 17.3%
COc1ccccc1-c1nnc2n1N=C(c1ccc(O)c(O)c1)CS2 -15.3%
COc1ccc(OCCOC(=O)c2[nH]c(C)c(C(C)=O)c2C)cc1 7.23%
COc1ccc(C2CC(c3ccc(OC)c(OC)c3)=NN2C(=O)c2ccccc2)cc1 (stereo not given) -1.47%
Cc1[nH]n(C(N)=S)c(=O)c1N=Nc1ccc2ccccc2c1 -24.7%
COc1cc(/C=C2/S/C(=N/S(=O)(=O)c3ccccc3)NC2=O)c([N+](=O)[O-])cc1OC 14.5%
COc1ccccc1NC(=O)N1CCC(c2nc3cc(C)c(C)cc3[nH]2)CC1 -25.1%
CC1=C/C(=N\NC(=S)NCc2ccccc2)CC1 4.2%
